Data from the supplement of paper PMC3334620.
Whole data set: some 33,000 sequences, median “E-score (-0.5 to 0.5)” near -0.012, cut for the highest 2% near 0.29. This is one part of the list.

The sequences below were run against T1, Ybr033w (UniProt P38073) (assay: PBM E-score (8-mer binding enrichment) (E-score (-0.5 to 0.5)); higher = stronger / more preferred TF binding; most listed sequences are background and not binding sites). Conditions: protein concentration: 200 nM; construct: GST-full length.
T1 sequence: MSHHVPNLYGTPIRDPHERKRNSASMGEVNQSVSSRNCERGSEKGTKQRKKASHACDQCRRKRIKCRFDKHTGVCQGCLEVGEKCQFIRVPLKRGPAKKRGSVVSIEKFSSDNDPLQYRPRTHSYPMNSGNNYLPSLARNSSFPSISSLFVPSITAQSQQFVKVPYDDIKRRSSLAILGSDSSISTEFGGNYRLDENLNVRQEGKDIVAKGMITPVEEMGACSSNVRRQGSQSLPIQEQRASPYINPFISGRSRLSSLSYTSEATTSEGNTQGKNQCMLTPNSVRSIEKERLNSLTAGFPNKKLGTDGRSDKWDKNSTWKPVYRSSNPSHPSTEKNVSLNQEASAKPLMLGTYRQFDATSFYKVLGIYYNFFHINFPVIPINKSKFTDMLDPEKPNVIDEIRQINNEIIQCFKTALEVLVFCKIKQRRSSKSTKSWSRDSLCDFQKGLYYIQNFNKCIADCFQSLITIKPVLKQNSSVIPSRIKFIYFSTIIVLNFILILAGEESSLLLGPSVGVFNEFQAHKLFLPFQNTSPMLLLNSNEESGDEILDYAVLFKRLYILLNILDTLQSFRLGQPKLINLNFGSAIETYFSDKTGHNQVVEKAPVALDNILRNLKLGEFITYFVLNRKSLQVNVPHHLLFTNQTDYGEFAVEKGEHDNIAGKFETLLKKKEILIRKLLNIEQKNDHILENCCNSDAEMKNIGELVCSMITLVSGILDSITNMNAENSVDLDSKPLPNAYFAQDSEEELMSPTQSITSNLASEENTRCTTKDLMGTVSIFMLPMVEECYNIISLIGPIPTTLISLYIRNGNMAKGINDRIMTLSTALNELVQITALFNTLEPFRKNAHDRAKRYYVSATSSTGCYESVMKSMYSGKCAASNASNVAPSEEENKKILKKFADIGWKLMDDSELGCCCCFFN
Summary of the method: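 Yeast transcription factors carrying a GST tag, as full-length proteins or DNA-binding domains, were produced by PURExpress in vitro transcription/translation. About 100-200 nM protein was applied to universal all-10-mer Agilent arrays, double-stranded by primer extension on fresh or once-stripped slides. Bound protein was detected with fluorescent anti-GST, and scans were normalised with masliner. The Universal PBM Analysis Suite gave each ungapped eight-base word, pooled with its reverse complement, an E-score, a modified Wilcoxon-Mann-Whitney statistic.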

Sequence	PBM E-score
AACAGCCG	-0.0717
CAGATGAA	0.0518
GACGACAC	0.0332
ACAGCATA	0.0939
AGTTTACC	0.131
CCTAGGCC	-0.125
AGATTCAG	0.014
CAAAGGGG	-0.201
ACTCTCCT	-0.188
CGGAGTGA	0.0416
AGCCAGCG	-0.201
ACTCTCTA	0.0813
CAAAGATC	0.188
AATGTCAG	-0.0558
GCCGACGC	-0.141
ACCCAGCA	-0.163
ATCATCTA	0.19
ATCCTAAT	0.0746
ATAGTGAC	0.117
CATTGGCG	-0.154
CCTTGTTC	-0.124
CACCCAGA	-0.0258
GCAGCGAA	0.0437
CTACAGAC	-0.057
AGGAACAG	-0.0964

Sequence	PBM E-score
ATTCTAGG	0.0155
GATGTGCA	-0.0129
ATCAAATA	0.228
ATGTTTTC	0.247
CAAGAACG	-0.0132
ATGACGTA	0.108
ATGGTTGC	-0.219
AGCTCACG	-0.088
ACAAAGCA	0.169
ACTTAACA	0.16
CGCTACAC	-0.191
ATACCTGC	-0.0785
CGAGACAA	0.0277
AGCTAATG	0.0499
CCATTCAA	0.0756
ATCGTAAT	0.194
AATGTGTA	0.113
CACTATAC	0.125
GGAGACAC	-0.189
AGGGACGG	-0.347
CGCCGCGC	-0.227
GAGTGAAC	-0.0174
CAGAAGCC	-0.125
TATCGCAA	0.245
CTTGCTGC	-0.0279

Sequence	PBM E-score
CGTTCAAC	0.067
GATGCAAC	-0.0518
TTAAGGAA	0.218
CTAGATCA	0.00896
ACCGTGAG	-0.181
AGGAAAGG	-0.215
ACACGAAG	0.108
CCTAACAG	0.0161
TCGCCTAA	-0.0224
GCTTATTA	0.0754
CATGGCTA	0.0397
ACGTTATG	0.115
AGCTCATC	-0.205
AACTCGAA	-0.085
CGCAGTAC	-0.0569
GACGGGCA	-0.305
AAACTAGT	0.136
GATTCCGA	0.129
CGCTCTTC	-0.0286
AAAGATTA	0.203
ATGAGCGC	0.0495
GGACAGAA	-0.0539
CATCCCGC	-0.173
ACTCGCCG	0.0687
CAGACTCA	-0.0754

Sequence	PBM E-score
GTACACCA	-0.0592
AGCCGCGA	-0.188
ATACGAGG	-0.0951
CGTCGCGC	-0.00948
GGACGATA	0.0598
GCCAATAC	-0.106
AATCAGGA	-0.0223
AGCTGCCC	-0.15
AGCGTAGA	-0.102
ATAAGTGA	0.111
ACAACGGA	0.186
ATCACATG	0.0416
GACCCGCC	-0.188
CTGATCCC	-0.291
CTACATAG	0.0985
CCCCTCGG	-0.34
AGATGGCT	-0.132
AAGCTCAC	-0.0473
ATTCATTG	0.181
GCTTGCGA	0.0983
ACCACGAC	-0.00188
CCCGAACG	-0.161
CAAAATGG	0.184
AGCGCTTC	0.016
ACCCGGGT	-0.239

Sequence	PBM E-score
CACTTGGG	-0.0516
TAACGGAA	0.153
ACGGGACC	-0.24
CTCGAGGA	-0.147
ACATGGTG	0.119
AAGAGCAT	-0.0303
AGTATCAG	0.0699
ATGGCAAG	-0.0226
AAATGTTC	0.346
AACCCATG	-0.0578
ATTCCGCA	0.00897
CTTTGAGA	0.203
CGTTACGC	-0.0649
TGCCACAA	0.0612
CAACATTC	-0.148
CCCCCTTC	-0.43
CTAAAAGC	-0.217
ACTTGCTC	0.00803
CATTCACA	0.179
CTCTTCTC	-0.149
CCCAGGCG	-0.141
ACCATAAT	0.154
CATGTTTA	0.154
ACCTGTTC	0.0242
AAAGACAA	0.215

Sequence	PBM E-score
AACGGTTC	-0.0588
CACAGTGA	0.0752
CATGTGGG	-0.0644
GTCAGTTA	-0.00637
ACACCATC	0.0756
AGCACAAT	0.0444
GTAATAAA	0.198
CCGGCAAA	0.0998
GCACGTTA	-0.06
ATCTACTG	0.143
ACCGACGT	0.114
GGCACGAC	-0.0797
AAGATTGG	0.133
AAATTCTG	0.287
ACCTAGTG	0.0772
CAACTTCC	0.116
CACAGCTC	-0.0709
AGAGACTA	-0.0151
AAATGCAG	0.024
AGTTTGCA	0.0409
GCGCCATA	-0.0196
TCTTGCCA	-0.177
TCAGGGAA	0.0109
AATGGGTC	-0.239
CACAGATC	-0.00409

Sequence	PBM E-score
CGTCGTAA	-0.191
CCGATCCC	-0.308
CGCTGGCA	-0.0391
AGGGATTC	0.0761
CAGCATCG	-0.136
CCATATGC	0.0157
CCCCATAA	-0.102
CCTATTAG	0.0425
AATATGCG	0.0344
AAGCCCTG	-0.0215
AATTTTGC	0.142
GAAATGAC	0.135
GCAGGACC	-0.155
GCCGGAGC	-0.177
CCCATTCG	-0.0351
GTTTCCGA	0.2
CCACTATA	0.0526
TGGTCGAA	-0.209
AGTGAACA	0.00583
TAGAAATA	0.211
GTTGTTGA	0.148
CGCTTTAG	-0.0236
GATTTGTA	0.129
AGAATGCC	-0.0863
ACGGATAG	0.0372

Sequence	PBM E-score
GGAACTGA	-0.112
CGCTTCTC	-0.18
GACTAATA	0.267
CCAGAGCC	-0.0997
ATGTAAGG	0.141
CAGCGTCG	-0.0932
ACGGCCGA	-0.0148
ACCTGTCC	-0.275
CTGGCCAC	-0.255
GATCTATA	0.157
AGTTAGCC	0.102
CAAACCCG	-0.162
CAGGAGGC	-0.202
GCCATCGA	0.0443
CGGCAAAA	-0.0196
CACGAGGC	-0.0463
CAAGGTAG	-0.0797
ACGAGGCA	-0.0799
GGGGTCCA	-0.328
GCAAAAGC	0.0476
CGGTCGTA	0.0625
CTTCGGTC	-0.00957
ATCTAAAT	0.277
CTTTCGCA	-0.0327
AACTAAAC	0.167

Sequence	PBM E-score
CGCCGGAG	-0.106
AGTGAACG	0.0746
CCATAGTA	0.0224
CTGCTACC	-0.0245
ATTCTCGA	0.142
GCTTAGTA	0.139
CAATTACC	0.093
ATCGTGAC	-0.0158
AGCGATTC	0.0209
AGAGGCCC	-0.33
ATTTTATC	0.325
GAGGTTAA	0.0431
GCCAACCC	-0.186
AAATACGA	0.212
ACGCTACC	-0.173
ACTCCTTG	0.0195
TACATCGA	0.111
ATCGGGTA	-0.0306
CTTACGCC	-0.0386
